The record followed here is article PMC4336329 (PLoS ONE, 2015).

Among all 310,000 compounds or so, about 14,000 (4.5%) showed an effect of 50% or more. The effect is printed as a negative number. This is one part of the list.
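Note: peak tail current of the secondary pulse compared with the same well before compound.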

Sequence of human ether-à-go-go-related gene (hERG) potassium channel (Q12809 whole entry, looked up): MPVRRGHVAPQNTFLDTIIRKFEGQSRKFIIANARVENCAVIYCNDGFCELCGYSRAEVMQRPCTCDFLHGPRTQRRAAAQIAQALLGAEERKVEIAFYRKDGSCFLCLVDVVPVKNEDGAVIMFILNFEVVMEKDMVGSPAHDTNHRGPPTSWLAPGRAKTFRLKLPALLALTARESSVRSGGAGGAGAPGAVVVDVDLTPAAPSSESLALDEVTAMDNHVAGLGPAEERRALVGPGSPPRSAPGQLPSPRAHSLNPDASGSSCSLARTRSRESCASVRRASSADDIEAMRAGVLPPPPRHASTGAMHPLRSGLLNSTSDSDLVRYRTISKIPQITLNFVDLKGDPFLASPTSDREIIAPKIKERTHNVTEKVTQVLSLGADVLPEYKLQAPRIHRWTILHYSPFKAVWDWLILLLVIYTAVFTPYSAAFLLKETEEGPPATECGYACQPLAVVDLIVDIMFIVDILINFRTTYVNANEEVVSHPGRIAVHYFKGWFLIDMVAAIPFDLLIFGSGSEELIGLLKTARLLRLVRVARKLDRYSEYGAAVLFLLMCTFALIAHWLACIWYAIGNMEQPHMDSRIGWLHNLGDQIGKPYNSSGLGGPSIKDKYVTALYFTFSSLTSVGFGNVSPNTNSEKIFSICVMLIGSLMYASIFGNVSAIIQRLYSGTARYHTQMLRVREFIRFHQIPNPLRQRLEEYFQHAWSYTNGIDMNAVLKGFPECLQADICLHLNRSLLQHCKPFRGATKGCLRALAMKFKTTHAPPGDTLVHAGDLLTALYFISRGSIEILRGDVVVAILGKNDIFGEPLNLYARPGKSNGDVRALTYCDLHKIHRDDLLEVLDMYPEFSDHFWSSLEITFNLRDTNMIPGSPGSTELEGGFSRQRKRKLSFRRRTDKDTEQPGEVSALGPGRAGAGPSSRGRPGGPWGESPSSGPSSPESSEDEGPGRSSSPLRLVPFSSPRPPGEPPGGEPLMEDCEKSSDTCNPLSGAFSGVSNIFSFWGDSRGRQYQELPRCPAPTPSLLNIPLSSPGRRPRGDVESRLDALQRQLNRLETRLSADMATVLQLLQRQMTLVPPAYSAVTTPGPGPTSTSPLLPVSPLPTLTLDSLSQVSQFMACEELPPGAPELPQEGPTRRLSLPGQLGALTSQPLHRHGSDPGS

The assay addresses human ether-à-go-go-related gene (hERG) potassium channel (human, UniProt Q12809). The experiment in a line: primary screen, population patch clamp on CHO cells stably expressing hERG.
`Cc1ccc(CNCc2ccc3c(c2)OCO3)c(C)c1.O=C(O)C(=O)O`: the “hERG current change (%, negative = inhibition) at 10uM” value is -15.8%.

For `c1cc2c(cc1CN1CCNCC1)OCO2`, the “hERG current change (%, negative = inhibition) at 10uM” value turned out to be 10.8%.

As for `CN1CCCC1CCNC1C2CC3CC(C2)CC1C3` (centres unmarked), the “hERG current change (%, negative = inhibition) at 10uM” value is listed as -2.88%.

Take `COc1ccc(C(=O)C2CCN(CC(=O)NCc3ccccc3)CC2)cc1`: the “hERG current change (%, negative = inhibition) at 10uM” value was -46.3%.

As to `COc1ccccc1C(=O)NC(=O)COC(=O)Cc1ccccc1[N+](=O)[O-]`, the “hERG current change (%, negative = inhibition) at 10uM” value is given as 8.83%.

Turning to `O=C(c1ccc(NC2=NC3CS(=O)(=O)CC3S2)cc1)N1CCN(c2ccccc2)CC1` (centres unmarked), the “hERG current change (%, negative = inhibition) at 10uM” value was 20.7%.

Consider `CCCCn1cc(S(=O)(=O)c2ccccc2)c(=O)c2cc(C)ccc21`, for which the “hERG current change (%, negative = inhibition) at 10uM” value was -28.9%.

With `COC(=O)COc1ccccc1C(N)=O`, the “hERG current change (%, negative = inhibition) at 10uM” value was found to be 8.81%.

`O=c1c2ccccc2nc(SCc2nc(-c3ccccc3)no2)n1-c1ccc(F)cc1`: the “hERG current change (%, negative = inhibition) at 10uM” value is 9.12%.

With `O=C(/C=C/c1ccccc1)c1ccc(NC2=NCCCS2)cc1`, the “hERG current change (%, negative = inhibition) at 10uM” value was -6.63%.

With `COc1ccc(NC(=O)CSc2nccc(C)n2)cc1`, the “hERG current change (%, negative = inhibition) at 10uM” value is 11.9%.

For the compound `CCCN(C(=O)c1cccc(-n2cccc2)c1)c1c(N)n(Cc2ccccc2)c(=O)[nH]c1=O`, the “hERG current change (%, negative = inhibition) at 10uM” value was found to be 13.6%.

On to `O=C(CC(C(=O)O)P(=O)(c1ccccc1)c1ccccc1)c1ccc(Br)cc1` (centres unmarked), for which the “hERG current change (%, negative = inhibition) at 10uM” value was 5.9%.

Turning to `COc1ccc(/C=N/N=C2/NC(=O)C(CC(=O)NC(N)=O)S2)cc1` (centres unmarked), the “hERG current change (%, negative = inhibition) at 10uM” value is recorded as 5.13%.

For the compound `CCN(CC)C(=O)c1cn(C)c(=O)c2cc(OC)c(OC)cc12`, the “hERG current change (%, negative = inhibition) at 10uM” value was 16.1%.

Regarding `CCN1C(=O)[C@H]2[C@@H](c3ccc(SC4CCCCC4)c(OC)c3)N[C@@](Cc3ccccc3)(C(=O)OC)[C@H]2C1=O.O=C(O)C(F)(F)F`, the “hERG current change (%, negative = inhibition) at 10uM” value is recorded as -3.49%.

Consider `CN1CCC(N2CCCC(C(=O)O)C2)CC1.Cl` (centres unmarked), for which the “hERG current change (%, negative = inhibition) at 10uM” value is reported as 6.26%.

For `O=C(N/N=C/c1ccc(Br)o1)c1cccnc1`, the “hERG current change (%, negative = inhibition) at 10uM” value came to 2.33%.

As for `O=C(/C=C/c1ccc2c(c1)OCO2)N1CCCCC1`, the “hERG current change (%, negative = inhibition) at 10uM” value worked out at 10.6%.

As for `Fc1ccc(-c2ncc3ccccn23)cc1`, the “hERG current change (%, negative = inhibition) at 10uM” value is 16.4%.

As for `CN(CC(=O)Nc1cccc(Cl)c1)S(=O)(=O)c1ccc2c(c1)n(C)c(=O)c(=O)n2C`, the “hERG current change (%, negative = inhibition) at 10uM” value turned out to be 9.5%.

Turning to `Cc1ccc(/C=C/C(=O)NCc2ccco2)o1`, the “hERG current change (%, negative = inhibition) at 10uM” value was determined as 2.73%.

In the case of `Cc1nc2ccccn2c(=O)c1NC(=O)c1cccs1`, the “hERG current change (%, negative = inhibition) at 10uM” value is recorded as -1.25%.

For the compound `COc1ccc(NC(=O)CN(c2ccc(C(C)C)cc2)S(=O)(=O)c2c(C)noc2C)cc1OC`, the “hERG current change (%, negative = inhibition) at 10uM” value amounted to 13.1%.

As for `Cc1oc(-c2cccc(Cl)c2)nc1CN1CCC(C(=O)NCCCN2CCCC2=O)CC1`, the “hERG current change (%, negative = inhibition) at 10uM” value is recorded as -38%.

On to `COc1cccc(NC(=O)CCP(C)(=O)O)c1`, for which the “hERG current change (%, negative = inhibition) at 10uM” value is listed as 1.72%.

As for `CCOCc1nnc(NC(=O)CCS(=O)(=O)Cc2ccccc2)s1`, the “hERG current change (%, negative = inhibition) at 10uM” value was determined as 11.8%.

For the compound `CCCOc1ccc2oc(=O)c3c(c2c1)CCCN3C(=O)CN(C)Cc1ccccc1`, the “hERG current change (%, negative = inhibition) at 10uM” value was -29.7%.

With `Cc1onc(-c2ccccc2Cl)c1C(=O)Nc1nnc(-c2cccc([N+](=O)[O-])c2)s1`, the “hERG current change (%, negative = inhibition) at 10uM” value is listed as 17.2%.

For the compound `O=C(COc1coc(CN2CCc3ccccc3C2)cc1=O)Nc1cccc(F)c1`, the “hERG current change (%, negative = inhibition) at 10uM” value came out at 1.64%.

Regarding `O=C(Cn1cnc2scc(-c3ccccc3)c2c1=O)NCc1ccco1`, the “hERG current change (%, negative = inhibition) at 10uM” value is -24.9%.

Turning to `CC1(C)CC2(CCO1)NCCN1C(=O)CSC12` (centres unmarked), the “hERG current change (%, negative = inhibition) at 10uM” value was 5.9%.

For `Cc1ccc(SC2=C(Sc3ccc(C)cc3)C(=O)c3ccccc3C2=O)cc1`, the “hERG current change (%, negative = inhibition) at 10uM” value is 15.1%.

For the compound `O=C(CNC(=O)c1ccco1)Nc1ccc2c(c1)OCCO2`, the “hERG current change (%, negative = inhibition) at 10uM” value stood at 4.06%.

Turning to `CCOc1cc(C=O)ccc1OCC(=O)N1CCCC1`, the “hERG current change (%, negative = inhibition) at 10uM” value was found to be 12.6%.

On to `O=C(/C=C/c1ccc(F)cc1)N1CCCc2ccccc21`, for which the “hERG current change (%, negative = inhibition) at 10uM” value was -62.7%.

On to `Cc1ccc(-c2nc3ccccc3nc2Cl)cc1`, for which the “hERG current change (%, negative = inhibition) at 10uM” value is listed as 16.4%.

In the case of `CC(Oc1cccc2c1OC(C)(C)C2)C(=O)O` (centres unmarked), the “hERG current change (%, negative = inhibition) at 10uM” value is listed as -5.47%.

On to `O=C(CSc1nc2ccccc2c(=O)n1CCCC(=O)N1CCCC1)NCc1ccco1`, for which the “hERG current change (%, negative = inhibition) at 10uM” value is reported as -62.4%.

As for `COc1ccccc1/C=C(/NC(=O)c1ccccc1)C(=O)NCCCn1ccnc1`, the “hERG current change (%, negative = inhibition) at 10uM” value came out at 2.6%.

For `COc1cccc2cc(C(=O)N(Cc3cccs3)CC3CCCO3)c(=O)oc12` (centres unmarked), the “hERG current change (%, negative = inhibition) at 10uM” value was found to be 10.8%.

Turning to `Cc1cccc(Nc2ccc(C(=O)O)cc2[N+](=O)[O-])c1C`, the “hERG current change (%, negative = inhibition) at 10uM” value came out at 16.3%.

As to `O=C(Cn1[nH]c(=O)c2ccccc2c1=O)Nc1cccnc1`, the “hERG current change (%, negative = inhibition) at 10uM” value was 10.2%.

`O=C(NNC(=S)Nc1ccccc1)Nc1ccccc1`: the “hERG current change (%, negative = inhibition) at 10uM” value is 6.9%.
